# Results: PubChem BioAssay (NCATS)
# Inconclusive results, whose numbers are uncertain, are shown with a selection of clear calls. For part of these data: No potency is given beside an inconclusive call; the fits are too rough. Active and inactive are the calls of the source. The call rests on the fitted dose curve; in most records, active means well fitted curve in the direction sought with a large enough effect; inconclusive means small, poorly fitted or top-dose-only effect, or another doubt; inactive means no such curve, though single readings can be large; an effect the other way counts as inactive or inconclusive.
# Columns and labels:
# [1] = qHTS of pediatric cancer cell lines to identify multiple opportunities for drug repurposing: Primary screen for SK-N-MC cells (AID 1347093); conditions: SK-N-MC viability, CellTiter-Glo luminescence, 48 h; series mostly up to 46 µM; further: potency means the concentration at half of the fitted maximal effect
# In short: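 Metabolically active cells were quantified by ATP-dependent luminescence (CellTiter-Glo, 15 min at room temperature) following 48 h treatment. Cells had been plated at 500-1,000 per well and settled for 5 h beforehand.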
# [2] = qHTS of pediatric cancer cell lines to identify multiple opportunities for drug repurposing: Primary screen for Saos-2 cells (AID 1347097); conditions: Saos-2 viability, CellTiter-Glo ATP luminescence, 48 h; series mostly up to 46 µM; further: nearly all actives have a fitted effect of over 40% in size
# In short: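 Following a 5-hour attachment period, cells at 500-1,000/well received compounds and were cultured for 48 hours. CellTiter-Glo was added and luminescence read to estimate viable, metabolically active cells.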
# [3] = tested on: Zika virus NS2B-NS3 protease; test: Primary screen GU AMC qHTS for Zika virus inhibitors (AID 1347154); conditions: Zika NS2B-NS3 unlinked protease, AMC fluorogenic substrate; series mostly up to 54.1 µM; further: nearly all actives have a fitted effect of over 70% in size
# In short: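 Unlinked Zika NS2B hydrophilic domain/NS3 protease domain noncovalent complex (25 nM final) in 10 mM Tris-HCl pH 8.0, 0.01% Tween 20, with AMC peptide substrate. Fluorescence (ex 340, em 450 nm) change over 15 min, room temperature; percent inhibition fitted to 4-parameter Hill equation.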
# [4] = Primary qHTS for small molecule stabilizers of the endoplasmic reticulum resident proteome: Secreted ER Calcium Modulated Protein (SERCaMP) assay (AID 1508630); conditions: SH-SY5Y GLuc-SERCaMP (Gaussia luciferase released on ER calcium loss) secretion, thapsigargin, luminescence; activity change, negative = inhibition: at 38.4 µM (top of the series) unless noted; further: potency means the concentration at half of the fitted maximal effect
# In short: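 GLuc-SERCaMP-expressing SH-SY5Y cells, pretreated 16 h with compound, are challenged with thapsigargin to empty ER calcium stores; after 4 h, coelenterazine is added directly to the medium and luminescence is imaged.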
# [5] = qHTS of pediatric cancer cell lines to identify multiple opportunities for drug repurposing: Primary screen for BT-12 cells (AID 1347101); conditions: BT-12 viability, CellTiter-Glo luminescence, 48 h; series mostly up to 57.3 µM; further: nearly all actives have a fitted effect of over 25% in size
# In short: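 Cells (500-1,000/well) rested 5 h, then received compounds for 48 h; metabolically active cells were measured by CellTiter-Glo luminescence. Final concentrations spanned up to 46 µM (MIPE, 11-point) or 0.59 nM-46 µM (NPC, 8-point) in primary screens, 11-point in follow-ups.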
# [6] = biological target: ATP-dependent 6-phosphofructokinase (Trypanosoma brucei brucei) (UniProt O15648); test: qHTS Validation Assay to Find Inhibitors of T. brucei phosphofructokinase (AID 485368); further: potency means the concentration at half of the fitted maximal effect; conditions: T. brucei PFK enzyme assay, qHTS 7-point titration; series mostly up to 57.5 µM
# Chain of UniProt O15648 (O15648 whole entry, looked up): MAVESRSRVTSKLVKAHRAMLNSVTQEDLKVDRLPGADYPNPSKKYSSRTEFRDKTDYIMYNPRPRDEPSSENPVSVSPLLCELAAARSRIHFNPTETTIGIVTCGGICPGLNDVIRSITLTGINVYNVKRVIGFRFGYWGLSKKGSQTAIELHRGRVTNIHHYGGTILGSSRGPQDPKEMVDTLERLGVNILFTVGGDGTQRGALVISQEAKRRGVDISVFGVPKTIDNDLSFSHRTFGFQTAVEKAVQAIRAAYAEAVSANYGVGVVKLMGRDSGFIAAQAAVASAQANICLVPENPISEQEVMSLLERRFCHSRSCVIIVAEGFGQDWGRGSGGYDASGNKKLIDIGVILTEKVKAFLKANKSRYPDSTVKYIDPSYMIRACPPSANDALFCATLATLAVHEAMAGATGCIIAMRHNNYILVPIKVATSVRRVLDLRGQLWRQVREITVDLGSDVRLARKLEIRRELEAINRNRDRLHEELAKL
# In short: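 Enzyme reaction in triethanolamine buffer pH 8.0 with 5 mM MgCl2, 0.01% Tween20 and 0.1% BSA; PFK 1.25 nM, F6P 0.5 mM, ATP 0.1 mM, 45 min RT. ADP quantified by ADP-Glo.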
# [7] = tested on: Zika virus NS2B-NS3 protease (unlinked); test: Optimization of GU AMC qHTS for Zika virus inhibitors: Unlinked NS2B-NS3 protease assay (AID 1347151); conditions: recombinant ZIKV NS2B-NS3 protease, fluorogenic AMC substrate; activity change, negative = inhibition: at 52.5 µM (top of the series) unless noted; further: potency means the concentration at half of the fitted maximal effect; nearly all actives have a fitted effect of over 80% in size
# In short: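 In this qHTS, compounds acted on 25 nM unlinked Zika NS2B–NS3 in pH 8.0 Tris/Tween buffer. Cleavage of an AMC peptide ran 15 min at room temperature, to about 20% conversion.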
# Tags describe the fitted curve by direction and shape.
smiles,measurement,setting,value
CC(C)C(=O)OCc1cccc(OC(=O)[C@@H]2N3C(=O)[C@@H](NC(=O)Cc4ccccc4)[C@H]3SC2(C)C)c1,Potency,[1],"inconclusive [cytotoxic, partial curve, poor fit]"
C=CCN1C[C@H](C(=O)N(CCCN(C)C)C(=O)NCC)C[C@@H]2c3cccc4[nH]cc(c34)C[C@H]21,Potency,[1],inactive
same,Potency,[2],inactive
same,Potency,[3],inactive
same,Potency,[4],"inconclusive [inhibitor, single point]"
CC(=O)O[C@H]1C[C@@H]2CC[C@H]3[C@H]4C[C@H]([N+]5(C)CCCCC5)[C@@H](OC(C)=O)[C@@]4(C)CC[C@@H]3[C@@]2(C)C[C@H]1N1CCCCC1,Potency,[1],"inconclusive [cytotoxic, single point]"
same,Potency,[2],inactive
CC(=O)OCC(=O)[C@@]1(O)CC[C@H]2[C@@H]3CCC4=CC(=O)CC[C@]4(C)[C@@H]3C(=O)C[C@@]21C,Potency,[2],inactive
same,Potency,[4],inactive
C[C@H]1C[C@@H]2[C@H]([C@@H](O)C[C@@]3(C)[C@H]2CC[C@]3(O)C(=O)CO)[C@@]2(C)C=CC(=O)C=C12,Potency,[5],inactive
Nc1ncnc2c1nc(Sc1ccc(Cl)cc1)n2[C@H]1OC2COP(=O)(O)O[C@@H]2C1O (stereo not given in full),Potency,[6],inactive
N#CC1(c2ccc(F)cc2)CCC(=O)CC1,Potency,[2],inactive
same,Potency,[4],"inconclusive [inhibitor, partial curve, poor fit]"
Nc1nc2c(cnn2CCc2ccccc2)c2nc(-c3ccco3)nn12,Potency,[6],"inconclusive [falling, full curve]"
same,Potency,[7],active: 23.8 µM
